The campaign covered roughly 310,000 compounds. About 2,200 (0.71%) showed an effect of 50% or more. The effect is printed as a negative number. The list shows a part of the results. Where a SMILES comes first, the peptide text is derived from it. [ ]: non-standard residue; d: D form. The star is where a group is joined. ξ: configuration not given here. ξN = NC(=O)CC(N)C(=O)O; Boc = CC(C)(C)OC(=O)*

Chain of human ether-à-go-go-related gene (hERG) potassium channel (Q12809 whole entry, looked up): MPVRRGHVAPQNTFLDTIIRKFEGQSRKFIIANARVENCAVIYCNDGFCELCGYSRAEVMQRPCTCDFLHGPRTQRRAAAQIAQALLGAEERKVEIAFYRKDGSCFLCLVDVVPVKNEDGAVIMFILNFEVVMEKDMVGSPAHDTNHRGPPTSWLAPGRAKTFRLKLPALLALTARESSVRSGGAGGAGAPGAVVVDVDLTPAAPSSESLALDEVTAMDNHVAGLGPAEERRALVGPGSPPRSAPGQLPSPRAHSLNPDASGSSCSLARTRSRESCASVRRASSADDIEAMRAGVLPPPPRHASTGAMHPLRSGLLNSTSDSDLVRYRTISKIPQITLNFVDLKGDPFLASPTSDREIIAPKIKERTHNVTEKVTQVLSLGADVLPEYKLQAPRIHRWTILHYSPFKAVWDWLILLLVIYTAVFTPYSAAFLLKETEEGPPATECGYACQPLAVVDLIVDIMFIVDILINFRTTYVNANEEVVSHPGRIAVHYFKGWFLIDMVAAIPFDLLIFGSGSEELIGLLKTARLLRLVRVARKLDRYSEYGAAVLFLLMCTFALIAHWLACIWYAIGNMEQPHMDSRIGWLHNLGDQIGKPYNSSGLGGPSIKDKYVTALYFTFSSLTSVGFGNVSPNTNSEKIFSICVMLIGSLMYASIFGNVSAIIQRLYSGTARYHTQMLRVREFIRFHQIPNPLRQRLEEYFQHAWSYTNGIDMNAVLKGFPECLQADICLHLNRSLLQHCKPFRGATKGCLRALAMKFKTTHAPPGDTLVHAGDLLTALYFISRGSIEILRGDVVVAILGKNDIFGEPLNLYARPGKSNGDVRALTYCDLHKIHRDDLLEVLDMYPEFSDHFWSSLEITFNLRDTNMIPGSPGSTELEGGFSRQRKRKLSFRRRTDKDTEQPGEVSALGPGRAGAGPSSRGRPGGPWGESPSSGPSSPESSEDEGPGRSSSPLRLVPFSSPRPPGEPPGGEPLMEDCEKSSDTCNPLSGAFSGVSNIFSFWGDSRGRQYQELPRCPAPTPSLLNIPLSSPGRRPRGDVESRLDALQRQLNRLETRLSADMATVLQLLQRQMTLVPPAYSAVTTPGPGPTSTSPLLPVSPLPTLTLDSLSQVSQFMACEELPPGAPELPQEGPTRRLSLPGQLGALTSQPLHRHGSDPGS

This test concerns the target human ether-à-go-go-related gene (hERG) potassium channel (human, UniProt Q12809). As to the kind of experiment: primary screen, population patch clamp on CHO cells stably expressing hERG.
For the molecule `O=C(COC(=O)c1ccco1)NC1CCCCC1`, the “hERG current change (%, negative = inhibition) at 1uM” value is listed as 16.1%.

For `CC(=O)c1sc(N/N=C\c2cccc(Br)c2)nc1C`, the “hERG current change (%, negative = inhibition) at 1uM” value is listed as 2.03%.

Take `CN(C)c1cccc(C(=O)Nc2nnc(Cc3ccccc3)s2)c1`: the “hERG current change (%, negative = inhibition) at 1uM” value is recorded as 9.59%.

Consider `NC(=O)c1c(N)sc2c1CCCC2`, for which the “hERG current change (%, negative = inhibition) at 1uM” value is on record as -0.156%.

In the case of `O=C(O)CCC(=O)N1CCc2cc(S(=O)(=O)Nc3ccc4c(c3)OCCO4)ccc21`, the “hERG current change (%, negative = inhibition) at 1uM” value came out at 12.2%.

Consider `CCOC(=O)C1CCCN(c2nc3ccccc3nc2C(C#N)C(=O)OCCOC)C1` (centres unmarked), for which the “hERG current change (%, negative = inhibition) at 1uM” value is reported as -2.06%.

For `COC(=O)c1cn(C(=O)c2ccc(C)cc2C)c2ccccc12`, the “hERG current change (%, negative = inhibition) at 1uM” value came to 11.4%.

Take `COc1ccc(Br)cc1/C=N/NC(=O)CNC(=O)/C=C/c1ccccc1`: the “hERG current change (%, negative = inhibition) at 1uM” value stood at 10.2%.

Turning to `CCn1c(O)c(C(c2ccccn2)c2c(O)n(CC)c(=S)[nH]c2=O)c(=O)[nH]c1=S`, the “hERG current change (%, negative = inhibition) at 1uM” value is given as 11.9%.

`O=C(COc1nncc2ccccc12)Nc1ccc(F)c(F)c1`: the “hERG current change (%, negative = inhibition) at 1uM” value was 12.9%.

For `CCOC(=O)c1sc(/N=C/c2ccc(O)cc2O)cc1C`, the “hERG current change (%, negative = inhibition) at 1uM” value was 13.3%.

Turning to `CCOC(=O)Cc1cc(=O)n2[nH]c(C)c(C#N)c2n1`, the “hERG current change (%, negative = inhibition) at 1uM” value was found to be 14%.

On to `Cc1nc2cc(Cl)c([N+](=O)[O-])cc2s1`, for which the “hERG current change (%, negative = inhibition) at 1uM” value was 2.49%.

Consider `CNC(=O)c1c(Cl)cnn1-c1ccc(C)cc1`, for which the “hERG current change (%, negative = inhibition) at 1uM” value is on record as 14.6%.

For `CCC(=O)Nc1ccccc1-c1nc2ccccc2[nH]c1=O`, the “hERG current change (%, negative = inhibition) at 1uM” value is given as 17.5%.

Turning to `OC(CSc1c(Cl)cccc1Cl)CN1CCN(c2ccc(F)cc2)CC1` (centres unmarked), the “hERG current change (%, negative = inhibition) at 1uM” value is given as -7.19%.

With `CCCCc1ccc(NC(=O)CSc2nnc(CNC(=O)c3ccco3)o2)cc1`, the “hERG current change (%, negative = inhibition) at 1uM” value came out at 9.76%.

On to `COc1ccc(CC(=O)NNS(=O)(=O)c2ccccc2[N+](=O)[O-])cc1`, for which the “hERG current change (%, negative = inhibition) at 1uM” value is listed as 17.9%.

In the case of `CCO.N#CC1=C(N)C(C#N)(C#N)C(c2cccnc2)C2CC(c3ccccc3)CC=C12` (centres unmarked), the “hERG current change (%, negative = inhibition) at 1uM” value came out at 10.8%.

As for `CN1CCN(C(c2ccc(Cl)cc2)c2cc(Cl)c3cccnc3c2O)CC1` (centres unmarked), the “hERG current change (%, negative = inhibition) at 1uM” value is on record as 14.4%.

On to `Oc1ccccc1-c1nc2ccccc2nc1-c1ccccc1`, for which the “hERG current change (%, negative = inhibition) at 1uM” value was determined as 8.28%.

As to `CCOC(=O)CNC(=O)C(CC(N)=O)NC(=O)OC(C)(C)C` (centres unmarked) (Boc-[ξN]-Gly-OEt), the “hERG current change (%, negative = inhibition) at 1uM” value is 19.9%.

Take `O=C(CNC1CCCCC1)NN=C(c1ccccc1)c1ccccc1`: the “hERG current change (%, negative = inhibition) at 1uM” value was -24.4%.

As to `Cc1ncoc1C(=O)Nc1cccc(Cl)c1C`, the “hERG current change (%, negative = inhibition) at 1uM” value was 2.1%.

Consider `COc1cccc(NC(=O)Nc2cnccn2)c1`, for which the “hERG current change (%, negative = inhibition) at 1uM” value is 4.79%.

For `Cc1oc(-c2ccccc2)cc1C(=O)Nc1cccc2ccccc12`, the “hERG current change (%, negative = inhibition) at 1uM” value is 13.1%.
